Test results taken from publication PMC13360575, “Replaying germinal center evolution on a quantified affinity landscape” (Cell, 2026).

Experiments:
Experiment in all cases: flow cytometry on cells; yeast-surface display deep mutational scanning (Tite-Seq): scFv library on S. cerevisiae AWY101, biotinylated CGG (IgY) at 10-fold steps from 10^-6 to 10^-13 M plus 0 M, PE-streptavidin, four FACS bins, barcode sequencing; Δaffinity = -Δlog10(KD) against the naive scFv; mean of two independent experiments
Conditions in all cases: one partner purified
[1] = target: T1, clone 2.1 scFv N108LR (mouse)
T1 construct: as the VH of m4 (unmutated): VH of PDB 9ODB with the replacements of 2.1^hi reverted; IMGT numbering; scFv linker; as the Vkappa of m4 (unmutated) with N108R; source: yeast-surface display, S. cerevisiae AWY101 (pETcon vector), site-saturation library

[2] = target: T2, clone 2.1 scFv Y38HE (mouse)
T2 construct: as the VH of m4 (unmutated) with Y38E; IMGT numbering; scFv linker; as the Vkappa of m4 (unmutated): Vkappa of PDB 9ODB with the replacements of 2.1^hi reverted; source: yeast-surface display, S. cerevisiae AWY101 (pETcon vector), site-saturation library

[3] = target: T3, clone 2.1 scFv Y42LN (mouse)
T3 construct: as the VH of m4 (unmutated): VH of PDB 9ODB with the replacements of 2.1^hi reverted; IMGT numbering; scFv linker; as the Vkappa of m4 (unmutated) with Y42N; source: yeast-surface display, S. cerevisiae AWY101 (pETcon vector), site-saturation library

- Δaffinity (-Δlog10(KD) against the naive 2.1 scFv) [1]: 0.91 log10
- Δaffinity (-Δlog10(KD) against the naive 2.1 scFv) [2]: -3 log10
- Δaffinity (-Δlog10(KD) against the naive 2.1 scFv) [3]: 0.26 log10
B1: chicken IgY (natural protein)
chain: AVTLDESGGGLQTPGGTLSLVCEGSGFTFSSFHMQWVRQALGKGLEWVAGISGSGKYTSYGAAVKGRATISRDNGQSTVRLQLNNLKAEDTGTYYCTRSSCGGCCDWSPYTTGCGAYSTGTIDAWGHGTEVIVSSASPTSPPRLYPLSACCSDSAVPPAVGCLLSPSSAGGISWEGSGGTAVAGRVSGTPVKLSFVRLSPGEKRKSFVCSAAPGGALLKKEVQVCRVDPVPPVAPEVQVLHPSSCTPSQSESVELLCLVTGFSPASAEVEWLVDGVGGLLVASQSPAVRSGSTYSLSSRVNVSGTDWREGKSYSCRVRHPATNTVVEDHVKGC[about 250 residues not given here]
modifications: biotin (biotinylated CGG, Exalpha IgY-B, in the yeast-display assay)
